# Test results as given in PubChem BioAssay AID1240 (Sanford-Burnham Center for Chemical Genomics, 2008).
# In all, about 50,000 compounds went through this assay and about 800 (1.6%) showed an effect of 50% or more. The list shows a part of the results.
# Target: Bcl-2-like protein 10 (Homo sapiens) (UniProt Q9HD36)
# Assay: Phenotype converters, Bcl-B/TR3 peptide binding displacement, primary biochemical FP (AID 1240);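 further: 0% = Bcl-B with tracer peptide and DMSO and 100% = tracer peptide lacking Bcl-B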
# Settings: GST-Bcl-B / FITC-TR3 peptide fluorescence polarization; stronger effect = higher value; compound at 3.75 mg/L
# Sequence of UniProt Q9HD36 (Q9HD36 whole entry, looked up): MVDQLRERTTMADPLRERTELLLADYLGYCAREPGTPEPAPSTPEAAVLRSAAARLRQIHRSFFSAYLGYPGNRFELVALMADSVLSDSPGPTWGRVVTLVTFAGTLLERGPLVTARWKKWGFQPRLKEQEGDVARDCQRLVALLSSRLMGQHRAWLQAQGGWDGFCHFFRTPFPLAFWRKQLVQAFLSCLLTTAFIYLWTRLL
row,SMILES,displacement [%]
1,O=C(C=C(Cl)Cl)c1ccc([N+](=O)[O-])cc1,7.4
2,C/C(=N/NC(=O)CNc1ccc(C)cc1)c1ccc([N+](=O)[O-])cc1,6.5
3,COc1cc(/C=N/n2cnnc2)cc(I)c1OCCOc1ccc(C(C)(C)C)cc1,-23.8
4,O=C(CSc1ccc(C(=O)O)cc1)Nc1ccccc1,5.2
5,CCOC(=O)c1c(NC(=O)Cc2cccs2)sc(C(=O)N2CCOCC2)c1C,-10.4
6,Cc1ccccc1NC1(c2ccccc2Cl)C(=O)c2ccccc2C1=O,14.3
7,CCCC1=NN(c2nc3ccccc3s2)C(=O)/C1=C(\C)N1CCOCC1,-15.1
8,Cc1cccc(NC(=O)/C(=C\c2cccs2)NC(=O)c2ccccc2)c1,2.4
9,COc1ccc(N/C(N)=N/c2nc(C(F)(F)F)cc(=O)[nH]2)cc1,-3.5
10,COc1cc(OC)c(C2NC(=S)NC(C)=C2C(=O)Nc2ccc(Br)cc2)cc1OC (centres undefined),2.8
11,O=C(CSc1nc2ccccc2c(=O)n1CC1CCCCC1)c1ccc(Cl)cc1,-10.4
12,O=C(c1ccc(F)cc1F)n1nnc2ccccc21,-1.7
13,CCCOC(=O)c1ccc(NS(=O)(=O)c2ccc(Cl)cc2)cc1,-9.7
14,O=c1ccn(Cc2ccccc2)c(=O)[nH]1,5.9
15,CCc1ccccc1NC(=O)C(CC)c1ccccc1 (centres undefined),15
16,CCOC(=O)c1sc(NC(=O)c2ccc(C)o2)nc1C,-14.5
17,NS(=O)(=O)c1ccc(CCNC(=O)c2cccc(C#CC3(O)CCCCC3)c2)cc1,-5.2
18,O=C(Nc1ccccc1C(=O)Nc1ccc(Cl)cc1)c1ccccn1,-6.5
19,CCOc1ccc2c(c1)nc(C)n2CC,-0.6
20,COc1ccc(C2C(C(=O)OCC(C)C)=C(C)NC3=C2C(=O)CC(c2ccccc2)C3)c(OC)c1 (centres undefined),3.6
21,CCOc1cc(/C=C2\SC(=S)N(Cc3ccccc3)C2=O)ccc1OCc1ccc([N+](=O)[O-])cc1,-1
22,CCc1ccc(NC(=O)C(F)(F)F)cc1,7.7
23,COC(=O)C1=C(C(=O)OC)SC(=C2C(=S)C(C)(C)N(C(=O)c3ccc([N+](=O)[O-])cc3)c3cc(OC)ccc32)S1,-2.3
24,N#Cc1c(-c2ccc(Br)cc2)cc(-c2ccco2)c(C#N)c1N,76.9
25,O=C(CCNc1n[nH]c(=O)[nH]c1=O)N/N=C/CCc1ccccc1,11.6
26,Cc1ccc2nsnc2c1NC(=O)c1cc([N+](=O)[O-])ccc1Cl,3.7
27,O=C(O)c1cccc(S(=O)(=O)NCc2ccccc2)c1,1.4

row,SMILES,displacement [%]
1,CCC(=O)Nc1nc(C23CC4CC(CC(C4)C2)C3)c(C)s1,-2.7
2,O=C1NCC(O)=C1C=NCCc1ccc(O)cc1,15.9
3,CCc1ccc(/C=C(/C#N)c2nc3ccc(C)cc3[nH]2)cc1,3.2
4,O=C(N/N=C\c1cn(-c2ccccc2)nc1-c1ccccc1)c1ccc(Br)cc1,3.8
5,Cc1cc2nc(-c3cc(NC(=O)COc4ccccc4)ccc3O)oc2cc1C,-24.7
6,CC1=C(C)C(O)N(C(C)(C)c2cc(Cl)cc(Cl)c2)C1=O (centres undefined),-0.6
7,COC(=O)c1sc(NC(=O)c2cc([N+](=O)[O-])ccc2Cl)c(C(=O)OC)c1C,14.5
8,Cc1cccc(-n2c(C)cc(C=C3C(=O)c4ccccc4C3=O)c2C)c1,138
9,O=C1C(=O)N(CN2CCOCC2)c2ccc(Br)cc21,10.5
10,Cc1cc2nc3s/c(=C\c4ccc(-c5ccc(Cl)c([N+](=O)[O-])c5)o4)c(=O)n3c2cc1C,-8.2
11,O=C(NCc1ccc(F)cc1)C(=O)Nc1ccccc1F,11.3
12,Cc1c(C(=O)N2CCC(C)CC2)cccc1[N+](=O)[O-],-2.2
13,Cc1no[n+]([O-])c1COc1ccc(/C=C2\N=C(c3ccccc3)OC2=O)cc1,-9.9
14,COc1cc(C=O)ccc1OCCSc1ccc(C)cc1,6.6
15,Cc1ccc(S(=O)(=O)Nc2ccccc2Br)cc1[N+](=O)[O-],10.8
16,CCOc1cc(/C=C2\SC(N3CCN(C4=NC(=O)/C(=C\c5ccc(O)c(OCC)c5)S4)CC3)=NC2=O)ccc1O,0.7
17,CC1(C)CC(=O)c2c(oc3c(Br)cc(NS(=O)(=O)c4ccccc4)cc23)C1,1.4
18,COC(=O)c1cc(NC(=O)c2cccc(OCc3ccccc3)c2)cc(C(=O)OC)c1,1.2
19,CC1(C)Cc2c(sc3ncn4nc(CSc5nc6ccccc6o5)nc4c23)C(C)(C)N1,12.7
20,O=C(Nc1ccc(F)cc1F)N1CCN(Cc2ccc3c(c2)OCO3)CC1,-7.1
21,COc1cc(/C=C(/C#N)c2nc3ccc(C)cc3[nH]2)c(Br)cc1O,-53.5
22,Nc1cc(NCCCC(=O)O)ccc1[N+](=O)[O-],13.4
23,O=C(O)c1cc2c(ccc3cc(Br)ccc32)oc1=O,5.4
24,CCOC(=O)c1c(N(C(C)=O)C(C)=O)sc(=S)n1-c1ccccc1,-6.5
25,CCOC(=O)c1sc(NC(=O)COc2ccc(C(C)(C)C)cc2)nc1C,-2.6
26,NC1=NC(=O)C(Cc2ccc(Br)cc2)S1 (centres undefined),-3.8
27,c1ccc(OCCSc2nc3ccccc3o2)cc1,5.7
